Laboratory results taken from PubChem BioAssay AID504845 (National Center for Advancing Translational Sciences (NCATS), 2011).
The whole screen tested about 390,000 compounds, of which about 150 (0.038%) were called active. Inconclusive means that the source gave no clear call. Such entries were picked first, then a sample of the others. Calls follow the shape of the dose curve; as a rule, active = well fitted inhibition curve with a large enough effect; inconclusive = small, poorly fitted or top-dose-only effect; inactive = no such curve, though single readings can be large or run the other way. Where the call is inconclusive, the potency comes from a doubtful curve fit. The source holds several records for some structures; these can differ, active in one and inactive in another.

Molecular target: Regulator of G-protein signaling 4 (Homo sapiens) (UniProt P49798)
Sequence of UniProt P49798 (P49798 whole entry, looked up): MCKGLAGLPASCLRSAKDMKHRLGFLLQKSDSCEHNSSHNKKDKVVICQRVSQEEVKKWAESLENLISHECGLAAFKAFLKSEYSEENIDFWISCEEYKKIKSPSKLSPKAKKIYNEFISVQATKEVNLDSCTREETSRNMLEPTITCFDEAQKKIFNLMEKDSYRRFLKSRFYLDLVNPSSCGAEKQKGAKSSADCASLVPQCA
Experiment: Inhibitors of Regulator of G Protein Signaling (RGS) 4: qHTS; also: nearly all actives have a fitted effect of over 75% in size
Details: Transcreener GDP fluorescence polarization, RGS4-accelerated GTP hydrolysis; series mostly up to 114 µM; activity change, negative = inhibition: at the top concentration
Procedure, shortened: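 MLSMR compounds (23 nl, pin-transferred) preincubated 10 min at room temperature with a 500nM (2x) first reagent, then RGS4 at 900nM (2x) plus Transcreener GDP mix added; fluorescence polarization (620/688 nm) read before and after 90 min at 30 °C.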
% is scaled to controls: 0 for no effect and ±100 for the full control effect; potency is read from the fitted curve at half-maximal effect; tags tell the direction and shape of the fitted curve.

SMILES | Potency | activity change, negative = inhibition
O=C1NC(=Nc2ccccc2)S/C1=C\C=C\c1ccco1 | inconclusive: 39.8 µM [inhibitor, partial curve, poor fit] | 
CCOCc1[nH]c(=S)[nH]c(=O)c1Cc1ccc(OCC(C)C)cc1 | inconclusive: 35.5 µM [inhibitor, partial curve, poor fit] | 
O=C(O)c1cc2nc(-c3ccc(F)cc3)cc(C(F)(F)F)n2n1 |  | inactive: 17.6%
O=[N+]([O-])c1ccc(Cl)c(S(=O)(=O)Nc2cccc(S(=O)(=O)NC3=NCCC3)c2)c1 | inconclusive: 44.7 µM [inhibitor, partial curve, poor fit] | 
Cc1cc(Br)cc(C=Nc2ccc(N3CCOCC3)cc2)c1O | inconclusive: 89.1 µM [inhibitor, single point] | 
COc1ccc(OC)c(-c2cc(C(=O)Nc3c(C)nn(Cc4ccccc4C)c3C)no2)c1 |  | inactive: 2.23%
CC1=CC(C)(C)Nc2ccc(OC(=O)c3cccnc3)cc21 | inconclusive: 89.1 µM [inhibitor, partial curve, poor fit] | 
COC(=O)CN1C(=O)[C@H]2[C@@H](c3ccc(C)o3)N3C(=O)CN(CC4CC4)C(=O)[C@@]3(C)[C@H]2C1=O | inconclusive: 79.4 µM [inhibitor, single point] | 
COc1ccc2c(c1)C=C(C(=O)OCc1cccnc1)CO2 | inconclusive: 56.2 µM [inhibitor, partial curve, poor fit] | 
Cc1ccccc1-c1nnn(Cc2ccc(-c3nn[nH]n3)cc2)n1 | inconclusive: 50.1 µM [inhibitor, partial curve, poor fit] | 
Cc1nc2ccccn2c1-c1csc(NCc2ccco2)n1 | inconclusive: 56.2 µM [inhibitor, partial curve, poor fit] | 
Cc1ccc(/C=C/C(=O)Nc2ccc(Oc3ccccc3)cc2)o1 | inconclusive: 89.1 µM [inhibitor, single point] | 
O=C(/C=C/c1ccc([N+](=O)[O-])cc1)Oc1ccc(/C=N/NC(=O)c2ccncc2)cc1 | inconclusive: 11.2 µM [inhibitor, full curve, poor fit] | 
CN1C(=S)SC(C)(C)C1N(O)C(=O)Nc1ccc(Cl)cc1 (centres undefined) |  | inactive: -10.2%
CC1CC2=C(CC1/C=N/NC(N)=S)C(C)(C)CCC2 (centres undefined) | inconclusive: 100 µM [inhibitor, partial curve, poor fit] | 
Cc1cccn2c3c(c(=O)nc12)C(c1ccc(F)cc1)CC(=O)N3 (centres undefined) |  | inactive: 22.5%
CCc1nnc2sc(-c3ccc(NC(=O)c4ccc5c(c4)OCCO5)cc3)nn12 |  | inactive: -3.89%
NC(=O)CSc1nc2c(oc3ccccc32)c(=O)n1Cc1ccccc1 |  | inactive: -46.5%
O=C(O)Cn1cc(/C=C2/SC(=O)N(CC(=O)N3CCCCCC3)C2=O)c2ccccc21 | inconclusive: 44.7 µM [inhibitor, partial curve, poor fit] | 
CCOC(=O)C1CCN(C(c2ccc(OCC)cc2)c2c(O)cc(C)n(CCOC)c2=O)CC1 (centres undefined) |  | inactive: 10.3%
CCOC(=O)c1c(NS(=O)(=O)c2ccc(Br)cc2)sc2c1CCC2 | inconclusive: 50.1 µM [inhibitor, partial curve, poor fit] | 
Cc1ccc2c(c1)c1c3n2CCN[C@H]3CCC1 | inconclusive: 0.299 µM [inhibitor, full curve, poor fit] | 

SMILES | Potency | activity change, negative = inhibition
CCSc1ncc(Cl)c(C(=O)N(Cc2ccccc2)c2ccc(OC)cc2)n1 |  | inactive: 4.57%
CS(=O)(=O)N1CCN(c2ccc([N+](=O)[O-])c(NCCN3CCOCC3)c2)CC1 | inconclusive: 89.1 µM [inhibitor, single point] | 
COc1cc2c(cc1OC)C1(Nc3c-2c(-c2ccccc2)nn3-c2ccccc2)C(=O)Nc2ccccc21 (centres undefined) |  | inactive: 35.8%
Cc1cc(NC(=O)CCC(=O)N(c2ccc(F)cc2)C2(C(=O)NC3CCCCC3)CCCC2)no1 | inconclusive: 89.1 µM [inhibitor, partial curve, poor fit] | 
Cc1nc2ncccn2c1-c1csc(Nc2ccccc2)n1 | inconclusive: 70.8 µM [inhibitor, partial curve, poor fit] | 
N#CC1=C(N)NC(=S)C(C(N)=O)C1c1ccccc1F (centres undefined) | inconclusive: 50.1 µM [inhibitor, partial curve, poor fit] | 
Cc1ccc(C=Nc2ccccc2C(N)=O)cc1 |  | inactive: 8.58%
S=c1[nH]nc(C2CCCCC2)n1/N=C/c1cccs1 | inconclusive: 89.1 µM [inhibitor, partial curve, poor fit] | 
COc1ccc(/C=C/c2ccc3cccc(O)c3n2)c(OC)c1OC |  | inactive: 11.7%
CSc1ccc(C(c2c(C)[nH][nH]c2=O)c2c(C)[nH][nH]c2=O)cc1 | inconclusive: 44.7 µM [inhibitor, partial curve, poor fit] | 
COc1cccc(C(C)=C2SC(=S)NC2=O)c1 | inconclusive: 70.8 µM [inhibitor, partial curve, poor fit] | 
COc1ccc(/C(C)=N/NC(=O)c2ccccc2OCc2ccccc2)c(OC)c1 | inconclusive: 20 µM [inhibitor, full curve, poor fit] | 
CC(=O)N1CCCc2cc(S(=O)(=O)NC(C(=O)NC(C)c3ccccc3)C(C)C)ccc21 (centres undefined) |  | inactive: 27.9%
CN(C)c1ccnc2c[cH-]cc12.[Fe].c1ccc(-[c-]2[c-](-c3ccccc3)[c-](-c3ccccc3)[c-](-c3ccccc3)[c-]2-c2ccccc2)cc1 (centres undefined) | inactive | 
COc1ccc(S(=O)(=O)NCC(=O)O)cc1C(=O)NC1CCCCC1 | inconclusive: 79.4 µM [inhibitor, single point] | 
CCNc1nc(NC(C)C)nc(N(C#N)CC(=O)OC)n1 | inconclusive: 44.7 µM [inhibitor, partial curve, poor fit] | 
Cc1ccc(C2=NN=C(NC(=O)CSc3nncn3C)SC2)cc1 | inconclusive: 31.6 µM [inhibitor, full curve, poor fit] | 
CCn1c2ccccc2c2cc(NC(=O)c3ccc(=O)oc3)ccc21 | inconclusive: 50.1 µM [inhibitor, partial curve, poor fit] | 
CC(=O)Nc1ccc(CN2CCN(c3cccc(C(F)(F)F)c3)CC2)cc1 |  | inactive: -2.85%
CCOC(=O)C1=C(CSc2nc(-c3ccccc3)ccc2C#N)OC(N)=C(C#N)C1c1cccnc1 (centres undefined) | inconclusive: 79.4 µM [inhibitor, partial curve, poor fit] | 
COC(=O)C1=C[C@@H](C(=O)OC)C2C3=C(C(=O)[C@@]2(C)NC(=O)c2ccccc2)[C@H](C)[C@@H]2C(=O)N(C)C(=O)[C@@H]2[C@@H]3C1 (some centres undefined) |  | inactive: -4.31%
Cc1cc2nc(-c3ccc(SCc4ccccn4)nc3)[nH]c2cc1C | inconclusive: 44.7 µM [inhibitor, partial curve, poor fit] | 

SMILES | Potency | activity change, negative = inhibition
Cc1ccc(N2CCN(C(=O)CNS(=O)(=O)c3ccc(Br)s3)CC2C)cc1 (centres undefined) | inconclusive: 79.4 µM [inhibitor, single point] | 
Cc1cccc(OCC(=O)NC(=S)NNC(=O)c2ccncc2)c1 | inconclusive: 56.2 µM [inhibitor, partial curve, poor fit] | 
Cn1c(N)c(C(=O)Nc2ccc(-c3ccccc3)cc2)sc1=S | inconclusive: 25.1 µM [inhibitor, full curve, poor fit] | 
CN1CCc2cc(Cl)c(O)cc2[C@@H](c2ccccc2)C1 | active: 2.99 µM | 
COc1ccc(N2CCN(CCCNC(=O)c3cc4sccc4n3C)CC2)cc1 |  | inactive: 6.38%
O=c1[nH]c2ccccc2nc1Cc1ccccc1 |  | inactive: -3.48%
O=C(OCC(=O)N1CCN(C(=O)c2ccco2)CC1)c1cc(-c2ccco2)nc2ccccc12 | inconclusive: 79.4 µM [inhibitor, partial curve, poor fit] | 
O=C1c2ccccc2C(=O)c2c(/C=C/N3CCCCC3)ccnc21 |  | inactive: -51.7%
O=C(O)c1ccc(NC(=O)c2ccccc2NC(=O)c2cccc(Br)c2)cc1 | inconclusive: 50.1 µM [inhibitor, partial curve, poor fit] | 
COc1ccc(Nc2ccc([N+](=O)[O-])c3nonc23)c(OC)c1 | inconclusive: 50.1 µM [inhibitor, partial curve, poor fit] | 
S=c1[nH]nc(-c2cc(-c3ccsc3)n[nH]2)n1-c1ccccc1 | inconclusive: 79.4 µM [inhibitor, single point] | 
Cc1ccsc1/C=N/NC(=O)c1nnn(-c2nonc2N)c1CSc1ccccc1 |  | inactive: -16.4% [at 56.9 µM]
COc1ccccc1NC(=O)CSC1=NC(=O)C(NC(C)=O)C(=O)N1 (centres undefined) |  | inactive: 20.7%
CN(CC(=O)Nc1cccc(F)c1)C(=O)c1ccc2c(c1)NC(=O)CS2 | inconclusive: 100 µM [inhibitor, partial curve, poor fit] | 
COc1ccc(-c2cc3c(nn2)-c2ccccc2C3=O)cc1 | inconclusive: 20 µM [inhibitor, full curve, poor fit] | 
Cc1ccc(NC(=O)c2ccc(Br)cc2)c(C(=O)c2ccccc2)c1 | inconclusive: 89.1 µM [inhibitor, partial curve, poor fit] | 
COc1cc(NC(=O)c2ccc3c(c2)OCO3)ccc1NC(=O)C(C)C | inconclusive: 89.1 µM [inhibitor, single point] | 
CC(=O)OCCNc1cc(Sc2nc3ccccc3[nH]2)c2nonc2c1[N+](=O)[O-] | inconclusive: 17.8 µM [inhibitor, full curve, poor fit] | 
Cc1cc2c(NC(=O)Nc3ccc(C(F)(F)F)cc3)cccc2nn1 | inconclusive: 39.8 µM [inhibitor, partial curve, poor fit] | 
O=C(CSc1nc2cc(Cl)c(Cl)cc2[nH]1)c1ccc2c(c1)OCO2 | inconclusive: 50.1 µM [inhibitor, partial curve, poor fit] | 
